This note sets out measurements from US9890133B2 (priority 2011, dated 2018).

In one assay the test system is Coxsackie B1. Briefly: organism not typed. The following applies: read-out: Coxsackie B1 EC50.
For another assay, the system named is Coxsackie B3. Briefly: microbe, parasite or virus in culture. The following applies: Enterovirus B, B3, read-out: Coxsackie B3 EC50.
The next assay has as its system Rhinovirus. Briefly: microbe, parasite or virus in culture. To be noted: Enterovirus. Type of assay: cell-based.
The mark [1] stands for this setting: HRV14, read-out: Rhino HRV14 EC50.
[2] abbreviates: HRV21, read-out: Rhino HRV21 EC50.
Where [3] appears, read: HRV71, read-out: Rhino HRV71 EC50.

Molecules are shown by their SMILES. In brackets after ≈: the same amount, converted by molar mass. Where two headings read alike, the source gives them in different places.

In the case of `Cc1cncc(C(=O)NC23C(=O)c4c(N)cccc4C2(O)Oc2cc(C(C)C)ccc23)c1` (stereo not drawn) [Example 259, N-(1-Amino-4b-hydroxy-7-isopropyl-10-oxo-9b,10-dihydro-4bH-indeno[1,2-b]benzofuran-9b-yl)-5-methylnicotinamide], the EC50 – broadly, the concentration at which the effect is half-maximal – in the assay on Coxsackie B1 was under 0.01 µg/mL; in the assay with Coxsackie B3, under 0.01 µg/mL; in the assay with Rhinovirus (setting [1]), under 0.01 µg/mL; with Rhinovirus (setting [2]), under 1 µg/mL; in the assay with Rhinovirus (setting [3]), under 1 µg/mL.
For `Cc1cc2c(cc1C)C1(NC(=O)c3cccnc3)C(=O)c3c(N)cccc3C1(O)O2` (stereo not drawn) [Example 260, N-(1-Amino-4b-hydroxy-7,8-dimethyl-10-oxo-9b,10-dihydro-4bH-indeno[1,2-b]benzofuran-9b-yl)nicotinamide], the EC50 in the assay with Coxsackie B1, with Coxsackie B3 and in the assay with Rhinovirus (setting [1]) was under 0.01 µg/mL each time.
In the case of `COc1cncc(C(=O)NC23C(=O)c4c(N)cccc4C2(O)Oc2cc(C(C)C)ccc23)c1` (stereo not drawn) [Example 261, N-(1-Amino-4b-hydroxy-7-isopropyl-10-oxo-9b,10-dihydro-4bH-indeno[1,2-b]benzofuran-9b-yl)-5-methoxynicotinamide], the concentration for a half-maximal effect (EC50) in the assay with Coxsackie B1 is under 0.01 µg/mL; with Coxsackie B3, under 0.01 µg/mL; in the assay on Rhinovirus (setting [1]), under 0.01 µg/mL; in the assay on Rhinovirus (setting [2]), under 1 µg/mL; in the assay with Rhinovirus (setting [3]), under 1 µg/mL.
With `Cc1cc2c(cc1C)C1(NC(=O)c3ccc4ncccc4c3)C(=O)c3c(N)cccc3C1(O)O2` (stereo not drawn) [Example 262, N-(1-Amino-4b-hydroxy-7,8-dimethyl-10-oxo-9b,10-dihydro-4bH-indeno[1,2-b]benzofuran-9b-yl)quinoline-6-carboxamide], the EC50 in the assay on Coxsackie B1, in the assay on Coxsackie B3 and with Rhinovirus (setting [1]) was under 0.01 µg/mL in each case.
`CC(C)c1ccc2c(c1)OC1(O)c3cccc(N)c3C(=O)C21NC(=O)c1ccc2ccccc2n1` (stereo not drawn) [Example 263]: the EC50 with Coxsackie B1, with Coxsackie B3 and with Rhinovirus (setting [1]) was under 0.01 µg/mL each time.
For `CC(C)c1ccc2c(c1)OC1(O)c3cccc(N)c3C(=O)C21NC(=O)c1sc2ccccc2c1Br` (stereo not drawn) [Example 264], the EC50 with Coxsackie B1 came out at 0.011 µg/mL (≈ 0.02 µM); with Coxsackie B3, 0.035 µg/mL (≈ 0.0637 µM); in the assay on Rhinovirus (setting [1]), 0.034 µg/mL (≈ 0.0619 µM).
Consider `CC(C)c1ccc2c(c1)OC1(O)c3cccc(N)c3C(=O)C21NC(=O)c1cc2ccccc2[nH]1` (stereo not drawn) [Example 265], for which the EC50 with Coxsackie B1 is under 0.01 µg/mL; with Coxsackie B3, under 0.01 µg/mL; in the assay on Rhinovirus (setting [1]) it was under 0.01 µg/mL; in the assay on Rhinovirus (setting [2]), under 1 µg/mL; with Rhinovirus (setting [3]), under 1 µg/mL.
Regarding `CC(C)c1ccc2c(c1)OC1(O)c3cccc(N)c3C(=O)C21NC(=O)c1nccc2ccccc12` (stereo not drawn) [Example 266, N-(1-Amino-4b-hydroxy-7-isopropyl-10-oxo-9b,10-dihydro-4bH-benzo[d]indeno[1,2-b]furan-9b-yl)isoquinoline-1-carboxamide], the EC50 in the assay on Coxsackie B1, in the assay with Coxsackie B3 and with Rhinovirus (setting [1]) was under 0.01 µg/mL in each case.
Regarding `COc1c(C(=O)NC23C(=O)c4c(N)cccc4C2(O)Oc2cc(C(C)C)ccc23)cnc2ccc(F)cc12` (stereo not drawn) [Example 267, N-(1-Amino-4b-hydroxy-7-isopropyl-10-oxo-9b,10-dihydro-4bH-indeno[1,2-b]benzofuran-9b-yl)-6-fluoro-4-methoxyquinoline-3-carboxamide], the EC50 was under 0.01 µg/mL in the assay on Coxsackie B1; under 0.01 µg/mL in the assay on Coxsackie B3; 0.012 µg/mL (≈ 0.0234 µM) in the assay with Rhinovirus (setting [1]); under 1 µg/mL in the assay with Rhinovirus (setting [2]); under 1.1 µg/mL in the assay with Rhinovirus (setting [3]).
For the compound `CC(C)c1ccc2c(c1)OC1(O)c3cccc(N)c3C(=O)C21NC(=O)c1cc2ccccc2n1C` (stereo not drawn) [Example 268, N-(1-Amino-4b-hydroxy-7-isopropyl-10-oxo-9b,10-dihydro-4bH-indeno[1,2-b]benzofuran-9b-yl)-1-methyl-1H-indole-2-carboxamide], the EC50 is under 0.01 µg/mL in the assay on Coxsackie B1, under 0.01 µg/mL in the assay with Coxsackie B3, under 0.01 µg/mL in the assay with Rhinovirus (setting [1]) and under 1 µg/mL with Rhinovirus (setting [3]).
